# Source: paper PMC4336329 (PLoS ONE, 2015)
# Out of some 310,000 compounds screened, about 2,200 (0.71%) showed an effect of 50% or more. Effects have a minus sign here. Some of the results follow.
# Biological target: human ether-à-go-go-related gene (hERG) potassium channel (human, UniProt Q12809)
# Assay: primary screen, population patch clamp on CHO cells stably expressing hERG
# Chain of human ether-à-go-go-related gene (hERG) potassium channel (Q12809 whole entry, looked up): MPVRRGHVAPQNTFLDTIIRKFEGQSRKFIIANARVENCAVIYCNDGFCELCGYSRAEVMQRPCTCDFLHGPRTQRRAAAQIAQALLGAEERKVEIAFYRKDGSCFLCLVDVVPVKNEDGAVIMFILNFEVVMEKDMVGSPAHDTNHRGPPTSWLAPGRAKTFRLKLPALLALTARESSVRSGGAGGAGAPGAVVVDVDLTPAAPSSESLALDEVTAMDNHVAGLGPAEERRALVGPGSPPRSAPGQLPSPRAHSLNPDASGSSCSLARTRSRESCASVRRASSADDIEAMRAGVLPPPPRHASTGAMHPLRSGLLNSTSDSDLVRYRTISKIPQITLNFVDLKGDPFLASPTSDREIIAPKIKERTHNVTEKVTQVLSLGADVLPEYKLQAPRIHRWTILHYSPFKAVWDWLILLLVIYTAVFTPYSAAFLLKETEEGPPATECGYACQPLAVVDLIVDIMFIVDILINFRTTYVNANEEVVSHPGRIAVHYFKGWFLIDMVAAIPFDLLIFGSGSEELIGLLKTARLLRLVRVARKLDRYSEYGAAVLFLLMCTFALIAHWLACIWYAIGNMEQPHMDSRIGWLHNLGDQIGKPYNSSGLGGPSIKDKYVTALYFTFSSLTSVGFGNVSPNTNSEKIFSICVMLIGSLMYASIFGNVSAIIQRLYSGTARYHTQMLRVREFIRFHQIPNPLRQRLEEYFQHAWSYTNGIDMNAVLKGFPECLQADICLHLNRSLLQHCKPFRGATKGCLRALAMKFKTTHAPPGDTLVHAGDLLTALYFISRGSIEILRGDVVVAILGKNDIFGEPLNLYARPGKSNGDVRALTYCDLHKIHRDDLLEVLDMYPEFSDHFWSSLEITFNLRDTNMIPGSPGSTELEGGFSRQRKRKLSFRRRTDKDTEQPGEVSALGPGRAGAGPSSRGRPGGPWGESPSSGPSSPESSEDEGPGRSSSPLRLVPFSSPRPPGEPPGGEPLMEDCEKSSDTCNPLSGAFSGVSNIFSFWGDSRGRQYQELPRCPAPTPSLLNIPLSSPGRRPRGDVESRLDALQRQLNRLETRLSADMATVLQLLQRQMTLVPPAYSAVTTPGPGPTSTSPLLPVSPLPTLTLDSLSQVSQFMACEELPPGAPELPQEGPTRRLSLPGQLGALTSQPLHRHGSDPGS
row,SMILES,"hERG current change (%, negative = inhibition) at 1uM"
1,CC(C)CN(CC(C)C)S(=O)(=O)N1CCC(C(=O)NCc2cccnc2)CC1,8.83%
2,CCOc1ccc(N(CC(=O)NCC(C)C)S(C)(=O)=O)cc1,7.01%
3,CN(C)S(=O)(=O)c1cc(NC(=O)CSc2nn(-c3ccc(Cl)cc3)c(=S)s2)ccc1Cl,2.13%
4,COc1ccc(/C(C)=N/NC(=O)c2cc(C)[nH]n2)c(OC)c1,9.31%
5,O=C(Nc1ccc(NC(=O)c2ccncc2)cc1)c1ccncc1,7.78%
6,CCOC(=O)C1CCN(Cc2nc3ccc(Cl)cc3n2CCO)CC1,-2.55%
7,COC(=O)c1sc(Nc2ccccc2)nc1C,13.5%
8,N/C(=N\OS(=O)(=O)c1ccc2ccccc2c1)c1ccncc1,5.13%
9,N/C(=N\OC(=O)CCCc1ccccc1)c1ccc([N+](=O)[O-])cc1,3.39%
10,CC(C)NC(=S)N/N=C1\CCCCc2ccccc21,-4.27%
11,CC(C(=O)Nc1ccc(S(=O)(=O)N2CCCCC2)cc1)N1CCN(c2ccccn2)CC1 (stereo not shown),2.84%
12,Cc1cccc2c(N=Nc3ccccc3)c(O)[nH]c12,12.1%
13,COc1ccc(C(=O)COC(=O)c2cccnc2Cl)c(OC)c1,15.2%
14,C/C(=N\Nc1ccc([N+](=O)[O-])cc1)c1ccc(-n2nncc2C)cc1,4.2%
15,O=S(=O)(N1CCCCC1)n1c(Cc2ccccc2)nc2ccccc21,-9.68%
16,C=CC1=C2C=C(C3CC3)N(CCCN(CC)CC)C=C2C(=O)C(C)(OC(=O)c2ccco2)C1=O (stereo not shown),8.74%
17,CCn1cc(C(=O)OCC(=O)Nc2cc(S(=O)(=O)N(C)C)ccc2C)c(=O)c2ccc(C)nc21,8.56%
18,CCOc1cc(/C=C2\N=C3CCCCCN3C2=O)ccc1O,13.6%
19,COC(=O)c1c(NC(=O)C2CC=CCC2C(=O)O)sc2c1CCCCC2 (stereo not shown),2.52%
20,Cc1ccc(NC(=O)COC(=O)C2COc3ccccc3O2)cc1 (stereo not shown),11.8%
21,CC(C)NS(=O)(=O)c1ccc(OCC(=O)NCCC2=CCCCC2)cc1,3.85%
22,CCc1c(C)nc(SCC(=O)N2CCN(c3ccccc3OC)CC2)[nH]c1=O,9.15%

row,SMILES,"hERG current change (%, negative = inhibition) at 1uM"
1,O=C(CSc1nnc(-c2ccco2)n1Cc1ccccc1)NC(=O)NCc1ccco1,-15.6%
2,CCCn1c(N)c(N(C)C)c(=O)n(CC(=O)Nc2ccc(OC(F)(F)F)cc2)c1=O,12.2%
3,CCN(CC)C(=O)CSc1ncnc2sccc12,10.8%
4,O=C(C1CCN(S(=O)(=O)c2cccc3cccnc23)CC1)N1CCCCC1,12.7%
5,Cc1ccc(-n2c(COc3ccccc3)n[nH]c2=S)cc1,23.8%
6,O=C(O)CCC(=O)N1N=C(c2c(-c3ccccc3)c3cc(Cl)ccc3[nH]c2=O)CC1c1cccs1 (stereo not shown),9.95%
7,O=C(CSc1nnc(COc2ccccc2)o1)N1CCOCC1,1.82%
8,COc1ccc(S(=O)(=O)Nc2ccccc2C(=O)N2CCCCC2)cc1C,11.1%
9,O=C(Oc1ccc(OC(=O)c2ccco2)c(S(=O)(=O)c2ccc(Br)cc2)c1)c1ccco1,9.69%
10,CCOc1ccc(S(=O)(=O)Nc2cc(S(=O)(=O)N3CCOCC3)ccc2OC)cc1,-2.08%
11,O=[P+](Cc1ccccc1)Cc1ccccc1,6.48%
12,COc1ccc(N2CCN(C(C)C(=O)N3CCc4ccccc43)CC2)cc1 (stereo not shown),8.14%
13,COc1ccc(S(=O)(=O)N2CCCCC2)cc1NC(=O)C1CSC2(C)CCC(=O)N12 (stereo not shown),2.76%
14,NC(=O)CNC(=O)C1CCCc2c1[nH]c1ccc(Cl)cc21 (stereo not shown),7.66%
15,CCN(Cc1ccccc1)C(c1cc2cc(C)ccc2[nH]c1=O)c1nnnn1CCOC (stereo not shown),9.45%
16,COC(=O)c1ccnc(SCC(=O)c2ccccc2)c1,4.14%
17,CCN(CC)c1ccc(CNC23CN4CN(CN(C4)C2)C3)cc1,11.9%
18,COC(=O)C1C(c2ccc(OC)cc2)Nc2nnc(C(F)(F)F)n2C1(C)O (stereo not shown),10%
19,O=C(NC(Nc1cc(C(F)(F)F)ccc1Cl)C(=O)c1ccccc1)c1ccccc1 (stereo not shown),13.6%
20,CC(=O)Nc1ccn(-c2ccccc2)n1,11%
21,Cc1cccc(C)c1-n1c(C)nn(CC2CC2)c1=O,8.45%
